To fix the notation:
B1: PhoQ; a variant is named by its letters at X, in order, P23837 (parent)
chain: MKKLLRLFFPLSLRVRFLLATAAVVLVLSLAYGMVALIGYSVSFDKTTFRLLRGESNLFYTLAKWENNKLHVELPENIDKQSPTMTLIYDENGQLLWAQRDVPWLMKMIQPDWLKSNGFHEIEADVNDTSLLLSGDHSIQQQLQEVREDDDDAEMTHSVAVNVYPATSRMPKLTIVVVDTIPVELKSSYMVWSWFIYVLSANLLLVIPLLWVAAWWSLRPIEALAKEVRELEEHNRELLNPATTRELTSLVRNLNRLLKSERERYDKYRTTLTDLTHSLKTPLXXLQXXLRSLRSEKMSVSDAEPVMLEQISRISQQIGYYLHRASMRGGTLLSRELHPVAPLLDNLTSALNKVYQRKGVNISLDISPEISFVGEQNDFVEVMGNVLDNACKYCLEFVEISARQTDEHLYIVVEDDGPGIPLSKREVIFDRGQRVDTLRPGQGVGLAVAREITEQYEGKIVAGESMLGGARMEVIFGRQHSAPKDE

Some of the results follow. Bounds are passed on as bounds.

The assay covers variants of B1. Put plainly: enrichment ratio after two sorts for PhoP signalling (ratio (wild type AVST 3.29)); higher = more functional. The following applies: with PhoP (E. coli).
Regarding TPYL, the enrichment ratio was at most 0.25.
The result for SKPI reads at most 0.25; that for LEFQ, 6.2; that for YPTI, at most 0.25.
For ASES the value was at most 0.25; for WNCC, at most 0.25.
The result for MNAG reads 3.99; that for MTLT, at most 0.25; that for IKLD, at most 0.25.
As for TMIW, the enrichment ratio was at most 0.25.
The result for YAGT reads at most 0.25; that for YGGF, at most 0.25.
For AVMT the value was 7.67.
The result for DHGV reads at most 0.25; that for DNTR, at most 0.25.
As to LGTQ, the enrichment ratio is at most 0.25.
The result for YADR reads at most 0.25; that for GIAR, 4.4; that for LYHR, at most 0.25.
The result for YQNC reads at most 0.25; that for KIKY, at most 0.25; that for NYSR, at most 0.25.
For DDLI the value was at most 0.25; for NQSI, at most 0.25; for DSMM, at most 0.25.
With CVQT, the enrichment ratio is at most 0.25.
For LNCI the value was at most 0.25.
For KVNR the value was at most 0.25.
The result for IPAS reads at most 0.25.
With QYTA, the enrichment ratio was at most 0.25.
The result for TRFR reads at most 0.25; that for AMFH, at most 0.25.
The result for AVGC reads at most 0.25.
Take QYAI: the enrichment ratio is at most 0.25.
For the variant IVVR, the enrichment ratio was at most 0.25.
The result for FGDY reads at most 0.25; that for TMTV, 10.6; that for KHKF, at most 0.25.
Regarding TFCC, the enrichment ratio came to 3.86.
The result for WSAQ reads at most 0.25; that for VKRK, at most 0.25.
For AIFN the value was at most 0.25; for IVTF, at most 0.25; for VFLW, at most 0.25.
As to VFQR, the enrichment ratio is at most 0.25.
For FEWL the value was at most 0.25; for RHMP, at most 0.25.
The result for HPWI reads at most 0.25; that for IWIW, at most 0.25.
For QHNM the value was at most 0.25; for GEGS, at most 0.25; for VVLS, at most 0.25.
With NGHM, the enrichment ratio is at most 0.25.
The result for PLSF reads at most 0.25.
For QFPG the value was at most 0.25; for TWHF, at most 0.25; for FHAY, at most 0.25.
Consider RHKG, for which the enrichment ratio is at most 0.25.
For HNTC the value was at most 0.25; for KGVT, 0.605; for GKSI, at most 0.25.
For YYMT the value was at most 0.25; for RIHM, at most 0.25.
Regarding SDGY, the enrichment ratio is at most 0.25.
For LRQH the value was 0.346; for PATQ, at most 0.25.
For KLFQ the value was at most 0.25.
For RYWI the value was at most 0.25; for EAIL, at most 0.25; for TLWC, at most 0.25.
On to LCIV, for which the enrichment ratio was at most 0.25.
The result for HSRD reads at most 0.25; that for DQWR, at most 0.25; that for WQFW, at most 0.25.
For PAIH the value was at most 0.25.
Take VNGV: the enrichment ratio is at most 0.25.
The result for QPWA reads at most 0.25.
The result for DGIN reads at most 0.25; that for VPQP, at most 0.25.
The result for DKWV reads at most 0.25; that for DEQH, at most 0.25.
For QKRI, the enrichment ratio was at most 0.25.
For QSPA, the enrichment ratio was at most 0.25.
The result for TEIT reads 1.69; that for YIKV, at most 0.25; that for PTLD, at most 0.25.
For PQCQ the value was at most 0.25; for VQWY, at most 0.25; for FQYV, at most 0.25.
For EHIV the value was at most 0.25; for AHVI, at most 0.25; for GPVI, at most 0.25.
As to FMNW, the enrichment ratio is at most 0.25.
For the variant YQRG, the enrichment ratio was at most 0.25.
The result for PMRE reads at most 0.25; that for MHPH, at most 0.25; that for FPKG, 0.672.
For SMLG the value was 9.08; for REKM, at most 0.25; for SQWY, at most 0.25.
For TTNK the value was at most 0.25; for GANP, at most 0.25; for LWFN, at most 0.25.
With MIKG, the enrichment ratio was at most 0.25.
For EHLR the value was at most 0.25; for EPFA, at most 0.25; for IVVL, at most 0.25.
For SEGM the value was 6.17.
For RCTR the value was at most 0.25; for IFMQ, at most 0.25.
Consider GQED, for which the enrichment ratio was at most 0.25.
The result for DKQE reads at most 0.25; that for VQWN, at most 0.25.
The result for HWPP reads at most 0.25.
For RIHA the value was at most 0.25; for QDCD, at most 0.25.
As for ITHF, the enrichment ratio is at most 0.25.
The result for GNFE reads at most 0.25.
For PGFG the value was at most 0.25.
With FEYF, the enrichment ratio is at most 0.25.
The result for LNRE reads at most 0.25.
For FTRG the value was at most 0.25; for ATPY, at most 0.25.
In the case of IPHI, the enrichment ratio is at most 0.25.
Regarding SHQW, the enrichment ratio was at most 0.25.
For the variant WLRY, the enrichment ratio was at most 0.25.
For IDKP the value was at most 0.25.
Regarding VKQY, the enrichment ratio is at most 0.25.
In the case of PYSM, the enrichment ratio was at most 0.25.
The result for RVPK reads at most 0.25; that for HSRY, at most 0.25.
For RMDL the value was at most 0.25; for VEMP, at most 0.25; for RMPN, at most 0.25.
Turning to VYER, the enrichment ratio is at most 0.25.
For YHKC the value was at most 0.25; for QNWH, at most 0.25; for NWYL, at most 0.25.
Consider NIRE, for which the enrichment ratio is at most 0.25.
For MARD the value was at most 0.25; for AEVQ, 0.317.
The result for MIWD reads at most 0.25; that for FITG, at most 0.25.
For YIQK the value was at most 0.25.
As for RYPK, the enrichment ratio was at most 0.25.
For IEMP the value was at most 0.25; for RPYN, at most 0.25.
For MHTH the value was at most 0.25.
The result for YKDI reads at most 0.25; that for LRCQ, at most 0.25; that for FPHG, at most 0.25.
With RPHP, the enrichment ratio is at most 0.25.
The result for ERKS reads at most 0.25; that for IMRN, at most 0.25.
As for PNQQ, the enrichment ratio is at most 0.25.
For HPLI the value was at most 0.25.
For NPWD the value was 6.21; for LYKT, at most 0.25; for VEYS, at most 0.25.
The result for SIHW reads at most 0.25; that for NGAM, at most 0.25; that for NFLI, at most 0.25.
As to DHHL, the enrichment ratio was at most 0.25.
For YMPS the value was at most 0.25; for YHER, at most 0.25; for HRFG, at most 0.25.
The result for DLWW reads at most 0.25; that for HVPN, at most 0.25.
With FGYN, the enrichment ratio is at most 0.25.
Take MMSI: the enrichment ratio came out at 8.62.
For VRIA the value was at most 0.25; for LGKH, at most 0.25.
For PNMT the value was at most 0.25; for FKQV, at most 0.25.
With MGGL, the enrichment ratio worked out at 4.99.
Regarding MHVN, the enrichment ratio was at most 0.25.
For SLWG the value was at most 0.25; for NGLK, at most 0.25.
The result for NGWM reads at most 0.25; that for DAPS, at most 0.25.
On to SPEC, for which the enrichment ratio was at most 0.25.
Consider TIIV, for which the enrichment ratio was at most 0.25.
The result for PMYI reads at most 0.25; that for INGA, at most 0.25; that for DERE, at most 0.25.
MWAA: the enrichment ratio is at most 0.25.
Turning to FFIF, the enrichment ratio is at most 0.25.
As to LQYQ, the enrichment ratio was at most 0.25.
The result for DMHN reads at most 0.25; that for TYPL, at most 0.25; that for WMMM, at most 0.25.
Regarding MNPN, the enrichment ratio was at most 0.25.
For IRSN the value was at most 0.25; for NGER, at most 0.25.
In the case of ATTW, the enrichment ratio is 7.3.

The values are drawn from a collection of fitness landscapes (doi:10.1126/science.1257360).
